The RNAGym collection of RNA variant scans (doi:10.7554/elife.90254)
Read counts are not given, so values of variants with three or more changes are uncertain.

B1: LINE1-full (parent)
chain: UACGUAGGUGGUUUUCCCCUGAUAGUGCUAAGGGGGCCUGGAAGUUUGGACUGGGCAGAGCUCAACACAGCGUGGCAAAGUGGCUGUGGCUAGACUGCCUCUCUGGAUUCCUCGUCACUCAGCAGGGCAUCUCUGAGAGAAAUGCC

Variants of: B1
Assay: self-cleavage, relative activity (ratio to wild type); higher = more cleavage; in vitro, sequencing; the parent is a self-cleaving ribozyme

For UACGUAGGUGGUUUUCCCCUGGUAGUGCUAAGGGGGCCUGGAAGUUUGGACUGGGCAGAGCUCAACACAGCGUGGCAAAGUGGCUGUGGCUAGACAGCCUCUCUGGAUUCCUCGACACUCAGCAGGGUAUCUCUGAGAGAAAUGCC [A22G U96A U115A C128U], which self-cleavage is on record?
The self-cleavage was 0.02.

Which self-cleavage does the source give for UACGUAGGUGGUUUUCCCCUGGUAGUGCUAAGGGGGCCUGGAAGUUUGGACUGGGCAGAGCUCAACACAGCGUGGCAAAGUGGCUGCGGCUAGACUGCCUCCCAGGAUUCCUCGUCUCUCAGCAGGGCAUCUCUGAGAGAAAUGCC [A22G U87C U102C U104A A117U] here?
Its self-cleavage is 0.63.

Which self-cleavage does the source give for UACGUAGGUGGUUUUCCCCUGUUAGUGCUAAGGGGGCCUGGAAGUUUGGACUGGGCAGAGCUCAACACAGCGUGGCAAAGUGGCUGUGGCUAGACUGCCUCUCUGGAUUCCUCGUCACUCAGCGGGGCAUCUCUGAGGGAAAUGCC [A22U A124G A138G] here?
Its self-cleavage is 1.89.

Which self-cleavage does the source give for UACGUAGGUGGUUUUCCCCUGGUAGUGCUAAGGGGGCCUGGAAGUUUGGACUGGGCAGAGCUCAACACAGCGUGGCAAAGUGGCAGUGGCUAGACUGCCUCUCUGGAUUCCUUGUCACUCAGCAGGGCAUCUCUGAGAGAAAUGCC [A22G U85A C113U] here?
The self-cleavage was 0.07.

With UACGUAGGUGGUUUUCCCCUGUUAGUGCUAAGGGGGCCUGGAAGUUUGGACUGGGCAGAGCUCAACACUGCGUGGCAAAGUGGCUGUGGCUAGACUGCCUCUCUGGAUUCCUCGUCACUCGGCAGGGCAUCUCUGAGAGAAAUGCC [A22U A69U A121G] as the variant, how does the self-cleavage read?
The self-cleavage was 0.13.

With UACGUAGGUGGUUUUCCCCUGUUAGUGCUAAAGGGGCCUGGAGGUUUGGACUGGGCAGAGCUCAACACAGCGUGGCAAAGUGGCCGUGGCUAGACUGCCCCUCUGGAUUCCACGUCACUCAGCAGGGUAUCUCCGAGAGAAAUGCC [A22U G32A A43G U85C U100C U112A C128U U134C] as the variant, how does the self-cleavage read?
Its self-cleavage is 0.12.

With UACGUAGGUGGUUUUCCCCUGGUAGUGCUAAGGGGGCCUGGAAGUUUGGACUGGGCAGAGCUCAACACAGCGUGGCAAAGUGGCCGUGGCUAGACUGCCUCUCUGGAUUCCUCGUCACUCAGCAGGGCACCUCUGAGAGAAAUGCC [A22G U85C U130C] as the variant, how does the self-cleavage read?
Its self-cleavage is 0.

With UACGUAGGUGGUUUUCCCCUGUUAGUGCUAAAGGGGCCUGGAAGUCUGGACUGGGCAGAGCUUAACACAGCGUGGCGAAGUGGCUGUGGCUAGACUGCCUCUCUGGAUUCCUCGUCACUCAGCAGGGCAUCUCUGAGAGAAAUGCC [A22U G32A U46C C63U A77G] as the variant, how does the self-cleavage read?
The self-cleavage was 0.61.

For UACGUAGGUGGUUUUCCCCUGGUAGUGCUAAGGGGGCCUGGAAGUUUGGACUGGGCAGAGCUCAACACAGCGUGGCAAAGUGGCUGUGGCUAGACUGCCUCUCCGGAUUCCUCGUCACUCAGCUGGGCAUCUCUGAGAGAAAUGCC [A22G U104C A124U], which self-cleavage is on record?
Its self-cleavage is 1.53.

Which self-cleavage does the source give for UACGUAGGUGGUUUUCCCCUGUUCGUGCUAAGGGGGCCUGGAAGUUUGGACUGGGCAGAGCUCAACACGGCGUGGCAAAGUGGCUGUGGCUAGGCUGCCUCUCUGGAUUCCUCGUCACUCAGCAGGGCAUCUCUGAGAGAAAUGCC [A22U A24C A69G A94G] here?
Its self-cleavage is 0.44.

With UACGUAGGUGGUUUUCCCCUGUUAGUGCUGAGGGGGCCUGGAAGUUUGGACAGGGCAGAGCUCAACACGGCGUGGCAAAGUGGCUGUGGCUAGACUGCCUCUCUGGAUUCCUCGUCACUCAGCAGGGCAUCUCUGAGAGAAAUGCC [A22U A30G U52A A69G] as the variant, how does the self-cleavage read?
Its self-cleavage is 1.38.

Which self-cleavage does the source give for UACGUAGGUGGUUUUCCCCUGGUAGUGCUAAGGGGGCCUGGAAGUUUGGACUGGGCAGAGCUCAACACAGCGUGGCAAAGUGGCUGUGGCUAGACUGCCUCUCUGGAUUCCUCGCCACUCAGCAGGGCAUCUCUGAGAGAAGUGCC [A22G U115C A142G] here?
Its self-cleavage is 2.52.

Which self-cleavage does the source give for UACGUAGGUGGUUUUCCCCUGGUAGUGCUAAGGGGGCCUGGAAGUUUGGACUGGGCAGAGCUCAACACAGCGUGGCAAAGUGGCUGUGGCUAGACUGCCUCACUGGUUACCUCGUCACUCAGCAGGGCAUCUCUGAGAGAAAUGCC [A22G U102A A107U U109A] here?
Its self-cleavage is 2.19.

For UACGUAGGUGGUUUUCCCCUGUUAGUGCUAAGGGGGCCUGGAAGUUUGGACUGGGCGGAGCUCAACACAGCGUGGCAAAGUGGCUGUGGUUAGACCGCCUCUCCGGAUUCCUCGUCACUCAGCAGGGCAUCUCUGAGAGAAAUGCC [A22U A57G C90U U96C U104C], which self-cleavage is on record?
Its self-cleavage is 0.

Which self-cleavage does the source give for UACGUAGGUGGUUUUCCCCUGUUAGUGCUAAGGGGGCCUGGAAGUUUGGACUGGGCAGAGCUCGGCACAGCGUGGCAAAGUGGCUGUGGCUAGACUGCCUCUCUGGAUUCCUCGUUACUCAGCAGGGCAUCUCUGAGAGAAAUGCC [A22U A64G A65G C116U] here?
The self-cleavage was 0.07.

With UACGUAGGUGGUUUUCCCCUGGUAGUGCUAAGGGGGCCUGGAAGUUUGGACUGGGCAGAGCUCAACACAGCGUGGCAAAGUGGCUGUGGCUAGACAGCCUCUCUGGUUUCCUCGUCACUCAGCAGGGCAUCCCUGAGAGAAAUGCC [A22G U96A A107U U132C] as the variant, how does the self-cleavage read?
The self-cleavage was 0.2.

For UACGUAGGUGGUUUUCCCCUGGUAGUGCUAAGGGGGCCUGGAAGUUUGGACUGGGCAGAGCUCAACACAGCGUGGCAAAGUGGCUGUGGCUAGACUGCCUCCCUGGAUUCCUCGUCACUCAGCAGGGCAUCUCUGAGAGAAGUGCC [A22G U102C A142G], which self-cleavage is on record?
Its self-cleavage is 1.71.

Which self-cleavage does the source give for UACGUAGGUGGUUUUCCCCUGUUAGUGCUAAGAGGGCCCGGAGGUUUGGACUGGGCGGAGCUCAACUCAGCGUGGCAAAGUGGCAGUGGCAAGUCUGCCUCUCUGGAUUCCUCGUCACUCAGCAGGGCAUCUCUGAGAGAAAUGCC [A22U G33A U39C A43G A57G A67U U85A U91A A94U] here?
The self-cleavage was 0.

Which self-cleavage does the source give for UACGUAGGUGGUUUUCCCCUGUUAGUGCUUAGGGGGCCUGGAAGUUUGGACUGGGCAGAGCCCAACACAGCGUGGCAAAGUGGCUGUGGCUAGACUGCCUCUCUGGAUUCCUCGUCACUCAGCAGGGCACCUCUGAGAGAAAUGCC [A22U A30U U62C U130C] here?
Its self-cleavage is 0.29.
